Measured values from the supplement of paper PMC9151546.
Repeats are few or missing, and single values can be far off.

Experiments:
[1] = test system: CHO-K1; test: hypodiploid nuclei frequency (% of nucleated events); higher = more hypodiploid events (aneugenic)
[2] = test system: CHO-K1; test: relative survival (nuclei to bead ratio vs DMSO control) (% of vehicle control); higher = more surviving cells
[3] = test system: CHO-K1; test: micronucleus frequency (% of nucleated events); higher = more micronuclei (genotoxic)
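Wherever hypodiploid nuclei frequency (% of nucleated events) is given: hypodiploid nuclei gated on a flow cytometer with 488 nm excitation after SYTOX Green staining, cultures at 37 °C, positive controls vinblastine without S9 and cyclophosphamide with S9.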
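Wherever micronucleus frequency (% of nucleated events) is given: cells lysed with nuclei stained by SYTOX Green, then micronucleus-gated events counted against nucleated events by flow cytometry with 488 nm excitation.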
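Wherever relative survival (nuclei to bead ratio vs DMSO control) is given: Lysed-cell nuclei stained with SYTOX Green and counted against counting beads by flow cytometry at 488 nm excitation, with vinblastine (no S9) and cyclophosphamide (plus S9) as positive controls.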

CC(C)COC(=O)c1ccccc1C(=O)OCC(C)C [Diisobutyl phthalate]
Details | hypodiploid nuclei frequency, [1] [%] | micronucleus frequency, [3] [%] | relative survival, [2]
concentration: 4.5 (µM), S9 metabolic activation: with S9, exposure time: 3-4 hours | 0.32 | 2.04 | 175
concentration: 4.5 (µM), S9 metabolic activation: without S9, exposure time: 24 hours | 0.74 | 1.16 | 113
concentration: 5.63 (µM), S9 metabolic activation: with S9, exposure time: 3-4 hours | 0.26 | 1.74 | 159
concentration: 5.63 (µM), S9 metabolic activation: without S9, exposure time: 24 hours | 0.56 | 1.62 | 117
concentration: 7.04 (µM), S9 metabolic activation: with S9, exposure time: 3-4 hours | 0.3 | 1.18 | 181
concentration: 7.04 (µM), S9 metabolic activation: without S9, exposure time: 24 hours | 0.4 | 1.04 | 130
concentration: 8.8 (µM), S9 metabolic activation: with S9, exposure time: 3-4 hours | 0.3 | 1.26 | 184
concentration: 8.8 (µM), S9 metabolic activation: without S9, exposure time: 24 hours | 0.76 | 1.6 | 115
concentration: 11 (µM), S9 metabolic activation: with S9, exposure time: 3-4 hours | 0.24 | 1 | 196
concentration: 11 (µM), S9 metabolic activation: without S9, exposure time: 24 hours | 0.62 | 1.76 | 123
concentration: 13.7 (µM), S9 metabolic activation: with S9, exposure time: 3-4 hours | 0.18 | 1.36 | 187
concentration: 13.7 (µM), S9 metabolic activation: without S9, exposure time: 24 hours | 0.74 | 1.34 | 122
concentration: 17.2 (µM), S9 metabolic activation: with S9, exposure time: 3-4 hours | 0.32 | 1.24 | 183
concentration: 17.2 (µM), S9 metabolic activation: without S9, exposure time: 24 hours | 0.68 | 1.64 | 108
concentration: 21.5 (µM), S9 metabolic activation: with S9, exposure time: 3-4 hours | 0.2 | 1.36 | 149
concentration: 21.5 (µM), S9 metabolic activation: without S9, exposure time: 24 hours | 0.6 | 1.3 | 98.6
concentration: 26.8 (µM), S9 metabolic activation: with S9, exposure time: 3-4 hours | 0.24 | 1.36 | 184
concentration: 26.8 (µM), S9 metabolic activation: without S9, exposure time: 24 hours | 1 | 1.8 | 99.8
concentration: 33.6 (µM), S9 metabolic activation: with S9, exposure time: 3-4 hours | 0.4 | 2.12 | 166
concentration: 33.6 (µM), S9 metabolic activation: without S9, exposure time: 24 hours | 0.74 | 1.94 | 110
concentration: 41.9 (µM), S9 metabolic activation: with S9, exposure time: 3-4 hours | 0.28 | 1.88 | 197
concentration: 41.9 (µM), S9 metabolic activation: without S9, exposure time: 24 hours | 1.06 | 1.18 | 86.9
concentration: 52.4 (µM), S9 metabolic activation: with S9, exposure time: 3-4 hours | 0.3 | 1.68 | 158
concentration: 52.4 (µM), S9 metabolic activation: without S9, exposure time: 24 hours | 0.54 | 1.7 | 85.7
concentration: 65.5 (µM), S9 metabolic activation: with S9, exposure time: 3-4 hours | 0.34 | 1.94 | 189
concentration: 65.5 (µM), S9 metabolic activation: without S9, exposure time: 24 hours | 1.06 | 1.4 | 91.9
concentration: 81.9 (µM), S9 metabolic activation: with S9, exposure time: 3-4 hours | 0.32 | 1.9 | 183
concentration: 81.9 (µM), S9 metabolic activation: without S9, exposure time: 24 hours | 0.9 | 1.44 | 82.9
concentration: 102 (µM), S9 metabolic activation: with S9, exposure time: 3-4 hours | 0.26 | 1.46 | 209
concentration: 102 (µM), S9 metabolic activation: without S9, exposure time: 24 hours | 0.8 | 1.4 | 76
concentration: 128 (µM), S9 metabolic activation: with S9, exposure time: 3-4 hours | 0.18 | 1.36 | 179
concentration: 128 (µM), S9 metabolic activation: without S9, exposure time: 24 hours | 1.08 | 1.66 | 80.6
concentration: 160 (µM), S9 metabolic activation: with S9, exposure time: 3-4 hours | 0.28 | 1.32 | 160
concentration: 160 (µM), S9 metabolic activation: without S9, exposure time: 24 hours | 1.28 | 2.24 | 57.5
concentration: 200 (µM), S9 metabolic activation: with S9, exposure time: 3-4 hours | 0.3 | 1.88 | 172
concentration: 200 (µM), S9 metabolic activation: without S9, exposure time: 24 hours | 0.82 | 2.06 | 57.1
